Measurements taken from PubChem BioAssay AID743279 (National Center for Advancing Translational Sciences (NCATS), 2014).
The whole screen tested about 360,000 compounds, of which about 17,000 (4.7%) were called active. The shares of active, inactive and inconclusive entries below differ from those in the screen. Cut-off read from the data, not from the text of the source: active = activity change below about -50%; inconclusive = mostly about -30% to -49%; inactive = weaker than that.

assay: qHTS for Inhibitors of Inflammasome Signaling: IL-1-beta AlphaLISA Primary Screen; details: THP-1 LPS/ATP IL-1B secretion, 16 h; at 57.5 µM, active compounds read low
Outline: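 Secreted IL-1B measured by AlphaLISA bead assay after 16 h compound exposure of THP-1 cells; compounds (final up to 57.5 uM) added 1 h before LPS (250 ng/mL) and ATP (1.25 mM) stimulation; lower signal means less secretion.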
% is set by controls: 0 for no effect and ±100 for the full control effect.

Activity change, inactive:
O=C(Cc1ccccc1)N1CCCC1c1ccccc1 (centres undefined) 32.3%, Cc1ccc(NC(=O)COc2cccc(C)c2C)cc1S(=O)(=O)N1CCCCCC1 -29.6%, CC(=O)COc1ccc2c(-c3cccc([N+](=O)[O-])c3)cc(=O)oc2c1 -14.9%, CC(C)(C)c1ccc(S(=O)(=O)NC(=O)C2(C)CCN2C(=O)CC2CC2)cc1 (centres undefined) -3.72%, CCc1ccc(NC(=O)CSc2n[nH]c(=O)n2C2CC2)cc1 8.92%, O=C(NCc1ccccn1)Nc1cccc(F)c1 -25.1%

Activity change, inconclusive:
CCOc1ccccc1NC(=O)c1ccc2c(=O)n3c(nc2c1)CCCCC3 -31.4%, CN=C(Nc1ccc(C(=O)OC)s1)c1ccccc1 -36%, Cn1nnc2cc(NC(=O)Nc3cccc(C(F)(F)F)c3)ccc21 -45.7%, Cc1ccc(-n2c(C)cc(C(=O)CSc3nnnn3C)c2C)cc1 -44.3%, Cn1ccc2c(-c3cccc(C=O)c3F)cc3c(c21)C1CCC3C1 (centres undefined) -33.2%, Cc1nc(C(F)(F)F)ccc1C(=O)N1CCC1(C)C(=O)NS(=O)(=O)c1ccccc1 (centres undefined) -48.2%, C[C@@H]1CN([C@H](C)CO)C(=O)c2c(c3ccccc3n2C)-c2ccccc2CO[C@@H]1CN(C)Cc1ccc(O)cc1 -43.1%, CCS(=O)(=O)n1nc(-c2ccc(Cl)cc2)nc1SCc1ccccc1 -33.8%, CC(=O)C[C@@H]1OC[C@H](Cc2ccccc2)N1S(=O)(=O)c1ccc(C)cc1 -32.9%, Cc1c(CCOC(=O)CC23CC4CC(CC(C4)C2)C3)sc[n+]1Cc1ccccc1 -31.6%, Cc1cccc2c1-c1sc(C(=O)NCCCN3CCc4ccccc4C3)cc1CO2 -47.4%, Cc1cccc(NC(=O)COc2cccc3c2CCN(Cc2ccccc2)C3=O)c1C -37.9%, COc1cc(NC2c3ccccc3C(=O)N2Cc2ccccc2Cl)cc(OC)c1 (centres undefined) -37.4%, CC(C)Cn1c(N)c(C(=O)COC(=O)c2cc(S(=O)(=O)N3CCOCC3)ccc2Br)c(=O)n(C)c1=O -39.9%, CCCCn1c(SCC(=O)N2CCC(C)CC2)nc2cc(S(N)(=O)=O)ccc21 -31.4%, CCCN(CCC)CCCNC(=O)C1c2cc(OC)c(OC)cc2C(=O)N(C)C1c1cccnc1 (centres undefined) -36.9%

Activity change, active:
Cc1ccc(/C=C/C(=O)NCCc2cccc(Cl)c2)o1 -65.2%, COc1cc(CNCc2ccccn2)ccc1OCc1ccc(Cl)cc1 -57.2%
